According to the RNAGym collection of RNA variant scans (doi:10.1101/gad.245936.114):
This sample is rich in variants without activity.

B1: tRNA (parent)
chain: CUCUCGGUAGCCAAGUUGGUUUAAGGCGCAAGACUUUAAUUUAUCACUACGAAAUCUUGAGAUCGGGCGUUCGACUCGCCCCCGGGAGAUUUUUUCCUCGAGCAA

Variants of: B1
Assay: nonsense suppression (GFP-seq) (ratio to wild type); higher = more function; SUP4oc tRNA, yeast GFP reporter sort-seq
How it was run: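 Each variant's nonsense suppression (GFPSEQ) is a cell-share-weighted bin median GFP/RFP relative to the unmutated parent tRNA. Yeast with genome-integrated tRNA variants from a ~3% random-mutation library, a galactose-driven GFP ochre reporter and RFP were grown in raffinose/galactose medium with 80 mg/L adenine, then sorted into GFP/RFP bins for Illumina sequencing. Variants needed ≥100 reads and ≥30 cells.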

Variant | nonsense suppression
U21A G32U G78A | ≤ 0.026
U21A G61C U63C G66C G85C | ≤ 0.026
U21A G65C | ≤ 0.026
U21A G65C G85U | ≤ 0.026
U21A G67C | ≤ 0.026
U21A G69U | ≤ 0.026
U21A G73U G86A | ≤ 0.026
U21A G84A | ≤ 0.026
U21A G88A | ≤ 0.026
U21A U22G A24U C29U U76A | ≤ 0.026
U21A U22G U35G A54U A60U | ≤ 0.026
U21A U35A C81G G88A | ≤ 0.026
U21A U35G | ≤ 0.026
U21A U55A G61A C72U A74U | ≤ 0.026
U21A U55G U58A A60G | ≤ 0.026
U21A U57A U58C | ≤ 0.026
U21A U57C | ≤ 0.026
U21A U63G G86A | ≤ 0.026
U21A U70C C79G | ≤ 0.026
U21A U71A | ≤ 0.026
U21A U76C | 1.18
U21C A23C U71G G78A | ≤ 0.026
U21C A23U A33C C75A | ≤ 0.026
U21C A23U C82A | ≤ 0.026

Variant | nonsense suppression
U21C A24G | 0.0906
U21C A24U | 0.194
U21C A30C A54U G59C U71G | ≤ 0.026
U21C A30G | 0.967
U21C A30G A31G U63C | ≤ 0.026
U21C A30G C72A | ≤ 0.026
U21C A30U G88U | ≤ 0.026
U21C A31G | 1
U21C A31G G69U C83A | ≤ 0.026
U21C A31G U76C G85A G88C | ≤ 0.026
U21C A60C C80G | ≤ 0.026
U21C A62G U71G G88C | ≤ 0.026
U21C A74C | ≤ 0.026
U21C A74G G86C | ≤ 0.026
U21C C27A A33G U57C G88C | ≤ 0.026
U21C C27A C29U G65C G78A | ≤ 0.026
U21C C29A U57G | ≤ 0.026
U21C C29U G61U | 0.518
U21C C34U G88C | ≤ 0.026
U21C C64G C75A | ≤ 0.026
U21C G25A G32A C34G | ≤ 0.026
U21C G25A G84A G85U | ≤ 0.026
U21C G25C U70C G84U | ≤ 0.026
U21C G25U | ≤ 0.026

Variant | nonsense suppression
U21C G25U C27U C64A G88C | ≤ 0.026
U21C G28C A62C | ≤ 0.026
U21C G28U | ≤ 0.026
U21C G28U U57C | ≤ 0.026
U21C G32U U58C | ≤ 0.026
U21C G61A | 0.881
U21C G66C C82G C83G | ≤ 0.026
U21C G66C C82U C83G | ≤ 0.026
U21C G67U | ≤ 0.026
U21C G69A | ≤ 0.026
U21C G78C | 0.211
U21C G84A | ≤ 0.026
U21C U22G G65A | ≤ 0.026
U21C U57G | ≤ 0.026
U21C U58A A60U G67U | ≤ 0.026
U21C U70C U76C C77U | ≤ 0.026
U21G A23C A30U | ≤ 0.026
U21G A23U A30C C77A G78U C83U | ≤ 0.026
U21G A23U A31G G69C G78C | ≤ 0.026
U21G A24C | 0.493
U21G A30C A31G G32C A89G | ≤ 0.026
U21G A30C A31G G32C A89U | ≤ 0.026
U21G A30G | 0.227
U21G A30G A89G | ≤ 0.026

Variant | nonsense suppression
U21G A30U | ≤ 0.026
U21G A31C | ≤ 0.026
U21G A31U A60U G61U | ≤ 0.026
U21G A33C U76C | ≤ 0.026
U21G A33G U55C G59U | ≤ 0.026
U21G A54C | 0.764
U21G A60G | 0.0299
U21G A60U | 0.96
U21G A87G | 0.172
U21G A87U | ≤ 0.026
U21G C27A U63C | ≤ 0.026
U21G C27U U63G | ≤ 0.026
U21G C29G | ≤ 0.026
U21G C29U C34A U58G G61U C80U | ≤ 0.026
U21G C56U | ≤ 0.026
U21G C72G | ≤ 0.026
U21G C77G | ≤ 0.026
U21G C83A G84U | ≤ 0.026
U21G C83G G85A | ≤ 0.026
U21G G25C A33G | ≤ 0.026
U21G G25U G26U G61A | ≤ 0.026
U21G G26U A60G G86U | ≤ 0.026
U21G G28C A60C C81G | ≤ 0.026
U21G G28U U76C | ≤ 0.026

Variant | nonsense suppression
U21G G59U A62C C82U | ≤ 0.026
U21G G61A | 0.237
U21G G61C C72G | ≤ 0.026
U21G G61U | 0.554
U21G G67U U71A | ≤ 0.026
U21G G69A | ≤ 0.026
U21G G69C U71G U76G | ≤ 0.026
U21G G69U | ≤ 0.026
U21G G73C | ≤ 0.026
U21G G84A | ≤ 0.026
U21G G84C | ≤ 0.026
U21G U22A A31U G88C | ≤ 0.026
U21G U22C A24U C27A C34G A74C | ≤ 0.026
U21G U22G A54G C80A | ≤ 0.026
U21G U22G G25A A62U C79G A89G | ≤ 0.026
U21G U22G G25A A62U C79U A89G | ≤ 0.026
U21G U22G G28A | 0.206
U21G U35A G69C U76G | ≤ 0.026
U21G U55A C56G G66A C81G | ≤ 0.026
U21G U55C | 0.208
U21G U55C G61C G73A | ≤ 0.026
U21G U57G | ≤ 0.026
U21G U58G | ≤ 0.026
U21G U63A | 0.636

Variant | nonsense suppression
U21G U63G | 0.0367
U21G U70C | ≤ 0.026
U22A A23C C27U | ≤ 0.026
U22A A23C U55C G78A | ≤ 0.026
U22A A23G C64G | ≤ 0.026
U22A A23G U57C U71G C82U G85C | ≤ 0.026
U22A A24C G65C | ≤ 0.026
U22A A24G G61C | ≤ 0.026
U22A A24U C64U | ≤ 0.026
U22A A30G | 0.677
U22A A31C U55G G59C G65C G86A | ≤ 0.026
U22A A31G | 1.05
U22A A31U C81A | ≤ 0.026
U22A A33G C77A | ≤ 0.026
U22A A87G | 0.501
U22A A87U | ≤ 0.026
U22A C27A | ≤ 0.026
U22A C29G U57G U63A C75G | ≤ 0.026
U22A C34U C72G | ≤ 0.026
U22A C56G G69C A74G | ≤ 0.026
U22A C56U G66A G67C G85C | ≤ 0.026
U22A C80A | ≤ 0.026
U22A G25U G78A | ≤ 0.026
U22A G26C | ≤ 0.026

Variant | nonsense suppression
U22A G28C A30G U58A A74C | ≤ 0.026
U22A G28U | ≤ 0.026
U22A G32C | ≤ 0.026
U22A G32C A74U G84U | ≤ 0.026
U22A G32C G86C | ≤ 0.026
U22A G65A C80G | ≤ 0.026
U22A G65A G66U G67C | ≤ 0.026
U22A G66C | ≤ 0.026
U22A G66C C77U | ≤ 0.026
U22A G66U G86C | ≤ 0.026
U22A G73A | 0.325
U22A G73U C80G | ≤ 0.026
U22A G78A | 0.283
U22A G86U | 0.033
U22A U35A U57A | ≤ 0.026
U22A U35G | ≤ 0.026
U22A U70G G84A | ≤ 0.026
U22A U76A | 0.0747
U22C A23C | ≤ 0.026
U22C A23U G84U | ≤ 0.026
U22C A24C G73U | ≤ 0.026
U22C A24U C34A G66U | ≤ 0.026
U22C A30U C83A | ≤ 0.026
